Some of the results follow. The data describe in vitro nicking of single-stranded DNA by Rep domains (1 h at 37 °C, 3 µM enzyme); the outer parts of the 90-letter strands are left off. Uncut reads are compared with the no-enzyme pool on a log2 scale; uncut sequences lie near 0, cut ones below; no hit call is given. Counts are relative to all reads; uncut strands gain when others are lost, and binding without cutting may add a little.

The subject of the assay is T1, Rep nickase domain of tomato golden mosaic virus.
T1 sequence (residues 1-124, tag not shown): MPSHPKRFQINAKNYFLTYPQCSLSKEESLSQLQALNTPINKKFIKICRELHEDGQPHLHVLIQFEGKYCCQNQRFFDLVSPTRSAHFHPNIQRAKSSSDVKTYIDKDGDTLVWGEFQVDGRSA
Briefly: uncleaved DNA left, log2 of reads against the no-enzyme library (log2 ratio); higher = less cleavage (more negative = more Rep cleavage of the k-mer); sequences stand for … in CTCGTCCG…ACCGGAGA
Here is the method:
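A pool of 90-nt single-stranded DNAs with seven random bases just before the constant AC of the nick site (name = the seven bases) was cut by 3 µM recombinant His6-SUMO-tagged Rep nickase domain (300 nM DNA, 50 mM HEPES pH 8.0, 50 mM NaCl, 1 mM MnCl2, 1 h, 37 °C, three replicates). Uncut DNA was amplified and sequenced.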
For CATAAGC, the “uncleaved DNA left (log2)” value is -0.0599.

Consider TTGTGTG, for which the “uncleaved DNA left (log2)” value is -0.0118.

In the case of CCTCGTA, the “uncleaved DNA left (log2)” value was -0.0298.

For the sequence GGCGTAT, the “uncleaved DNA left (log2)” value was -0.0821.

On to CACGATC, for which the “uncleaved DNA left (log2)” value is -0.0504.

On to AATGTCT, for which the “uncleaved DNA left (log2)” value amounted to 0.0369.

TCAGCGT: the “uncleaved DNA left (log2)” value was -0.0696.

In the case of TCTTTGT, the “uncleaved DNA left (log2)” value is -0.202.

In the case of CGCTTTT, the “uncleaved DNA left (log2)” value is 0.0127.

As to GCCCCGT, the “uncleaved DNA left (log2)” value was 0.0566.

Take TAGCACT: the “uncleaved DNA left (log2)” value was -0.24.

Take AGTGGGA: the “uncleaved DNA left (log2)” value amounted to 0.0793.

On to TTGATGG, for which the “uncleaved DNA left (log2)” value is -0.0325.

Turning to TGGTCCG, the “uncleaved DNA left (log2)” value was -0.0372.

With GCCATAA, the “uncleaved DNA left (log2)” value is 0.0585.

With AATCTCT, the “uncleaved DNA left (log2)” value is 0.0259.

Consider GACGCCT, for which the “uncleaved DNA left (log2)” value is -0.0254.

As for TTTATAT, the “uncleaved DNA left (log2)” value is -0.0549.

With AGTCAGA, the “uncleaved DNA left (log2)” value came out at 0.0225.

Turning to CACCTAC, the “uncleaved DNA left (log2)” value was -0.226.

As for TTCCCTG, the “uncleaved DNA left (log2)” value is -0.13.

Take CTGAACG: the “uncleaved DNA left (log2)” value is -0.0285.

On to AGAAGTT, for which the “uncleaved DNA left (log2)” value amounted to 0.153.

On to ACGCATT, for which the “uncleaved DNA left (log2)” value is 0.0608.

As for CGAATAG, the “uncleaved DNA left (log2)” value is -0.0301.

For the sequence ACTACCA, the “uncleaved DNA left (log2)” value was -0.0165.

Take GCAGCAG: the “uncleaved DNA left (log2)” value is -0.00475.

On to GCCGATG, for which the “uncleaved DNA left (log2)” value came to 0.0245.

For the sequence TAATCTG, the “uncleaved DNA left (log2)” value is -0.0162.

As to CACTCCG, the “uncleaved DNA left (log2)” value is -0.0279.

Turning to GCCCCTC, the “uncleaved DNA left (log2)” value is -0.0563.

For the sequence GTGACTC, the “uncleaved DNA left (log2)” value came out at 0.0578.

Consider CGGCCAA, for which the “uncleaved DNA left (log2)” value stood at 0.0286.

On to GCGAATG, for which the “uncleaved DNA left (log2)” value was -0.00281.

For GCCCAGG, the “uncleaved DNA left (log2)” value came out at 0.00461.

For the sequence AAGGCGC, the “uncleaved DNA left (log2)” value was determined as 0.0645.

Take ATATCTT: the “uncleaved DNA left (log2)” value is -0.372.

ACTCAAT: the “uncleaved DNA left (log2)” value was 0.0844.

Take TGACGAC: the “uncleaved DNA left (log2)” value is -0.0638.

Take CAACTGA: the “uncleaved DNA left (log2)” value was -0.161.

The values above are taken from the supplement of paper PMC7826260.
